# Measurements: PubChem BioAssay (NCATS)
# Inconclusive means that the source gave no clear call. Such entries were picked first, then a sample of the others. For some of these results: Where the call is inconclusive, the potency comes from a doubtful curve fit. Calls of active or inactive are those of the source. Calls follow the shape of the dose curve; as a rule, active = well fitted curve in the direction sought with a large enough effect; inconclusive = small, poorly fitted or top-dose-only effect, or another doubt; inactive = no such curve, though single readings can be large; an effect the other way counts as inactive or inconclusive.
# Columns and labels:
# [1] = Primary qHTS for inhibitors of nuclear receptor binding SET domain protein 2 (NSD2) in an isogenic RCH-ACV NSD2 p.E1099K mutant (9B) (AID 1645876); conditions: activity change, negative = viability loss: at 44.9 µM (top of the series) unless noted; also: nearly all actives have a fitted effect of over 70% in size
# astro = assay: Drug repurposing screens with cells derived from glioblastoma tumor samples (AID 1345199); conditions: viability, ATP luminescence, 48 h; series mostly up to 45.9 µM; also: nearly all actives have a fitted effect of over 40% in size; also: potency is read from the fitted curve at half-maximal effect
# How it was run: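 Four patient lines of CD133+ GBM neurospheres were screened at several concentrations; hits were retested in those lines plus three slower-growing GBM lines, using 48-hour treatment and ATP-based viability.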
# [2] = P-glycoprotein substrates identified in KB-3-1 adenocarcinoma cell line, qHTS therapeutic library screen (AID 1346986);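 also: potency is read from the fitted curve at half-maximal effect; potency is for cytotoxicity meaning loss of cell viability; nearly all actives have a fitted effect of over 60% in size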
# How it was run: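 KB-3-1 parental cells and P-gp-overexpressing KB-8-5-11 (colchicine omitted during assay) plated at 500 cells/well, dosed in dose-response, incubated 72 h at 37 degree C. CellTiter-Glo luminescence read; KB-8-5-11 also tested with tariquidar.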
# [3] = qHTS Assay for Identifying Gametocytocidal Compounds (AID 743244); also: potency is read from the fitted curve at half-maximal effect; conditions: P. falciparum 3D7 stage III-V gametocytes, alamarBlue, 72 h; max response: active compounds read low
# How it was run: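 Viability read-out was resazurin reduction (alamarBlue, 24 h) measured at Ex 525/Em 598 nm. Beforehand, late-stage (III-V) 3D7 P. falciparum gametocytes at 20,000 cells/well were incubated with compound 72 h at 37C under 5% CO2.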
# [4] = target: Glutathione peroxidase 1 (Homo sapiens) (UniProt P07203); assay: Primary qHTS Assay for Inhibitors of Recombinant Selenoprotein Glutathione Peroxidase 1 (GPX1) (AID 1845191); also: potency is read from the fitted curve at half-maximal effect; nearly all actives have a fitted effect of over 65% in size
# Sequence of UniProt P07203 (P07203 whole entry, looked up): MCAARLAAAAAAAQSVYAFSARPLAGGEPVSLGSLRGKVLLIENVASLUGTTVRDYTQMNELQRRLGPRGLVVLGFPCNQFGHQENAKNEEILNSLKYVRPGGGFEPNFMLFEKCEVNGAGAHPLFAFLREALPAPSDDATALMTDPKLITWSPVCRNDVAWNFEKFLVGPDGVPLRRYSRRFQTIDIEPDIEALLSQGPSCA
# How it was run: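 Recombinant GPX1 (10 nM final) was preincubated with compound for 30 min at room temperature, then reacted with 1 mM GSH, 0.5 mM CHP, 0.5 mM NADPH and 100 nM glutathione reductase; NADPH fluorescence (340/450 nm) was read at 0 and 15 min.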
# [5] = target: Phospholipid hydroperoxide glutathione peroxidase GPX4 (Homo sapiens) (UniProt P36969); assay: Primary qHTS Assay for Inhibitors of Recombinant Selenoprotein Glutathione Peroxidase 4 (GPX4) (AID 1845192); conditions: activity change, negative = inhibition: at 50 µM (top of the series) unless noted; also: nearly all actives have a fitted effect of over 65% in size
# Sequence of UniProt P36969 (P36969 whole entry, looked up): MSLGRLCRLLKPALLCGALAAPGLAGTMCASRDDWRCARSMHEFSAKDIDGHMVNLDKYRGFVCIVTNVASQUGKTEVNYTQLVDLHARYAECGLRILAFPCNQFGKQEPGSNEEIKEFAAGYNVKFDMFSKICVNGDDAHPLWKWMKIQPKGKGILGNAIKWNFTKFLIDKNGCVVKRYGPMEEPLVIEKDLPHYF
# How it was run: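 GR-coupled readout: 100 nM GR, 1 mM GSH, 0.5 mM NADPH; NADPH fluorescence (ex 340/em 450 nm) read at t=0 and after 15 min RT. GPX4 200 nM, preincubated 30 min with compound; substrate 0.5 mM CHP.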
# Tags tell the direction and shape of the fitted curve.
smiles,measurement,setting,value
CCC[C@@H]1C[C@@H](C(=O)N[C@@H]([C@H]2O[C@H](SC)[C@H](O)[C@@H](O)[C@H]2O)[C@H](C)Cl)N(C)C1,Potency,[1],inactive
same,Potency,astro,inactive
COc1cc(O)c2c(=O)c(O)c(-c3ccc(O)c(O)c3)oc2c1,Potency,[2],"inconclusive: 29.1 µM [inhibitor, single point]"
CO[C@H]1C=CO[C@@]2(C)Oc3c(C)c(O)c4c(O)c(c(/C=N/N5CCN(C6CCCC6)CC5)c(O)c4c3C2=O)NC(=O)/C(C)=C\C=C[C@H](C)[C@H](O)[C@@H](C)[C@@H](O)[C@@H](C)[C@H](OC(C)=O)[C@@H]1C,Potency,[3],active: 10 µM
same,Potency,astro,"inconclusive: 35.5 µM [inhibitor, single point]"
O=Nc1c(-c2c(O)[nH]c3ccc(F)cc23)[nH]c2ccccc12,Potency,[2],"inconclusive: 29.1 µM [inhibitor, single point]"
CC(CN1c2ccccc2Sc2cccnc21)N(C)C (stereo not given),Potency,[4],"inconclusive: 20.2 µM [inhibitor, single point]"
same,Potency,[5],inactive
same,Potency,astro,"inconclusive: 15.8 µM [inhibitor, partial curve]"
O=C1Cc2c([nH]c3ccc([N+](=O)[O-])cc23)-c2ccccc2N1,Potency,[2],active: 1.78 µM
